PubChem BioAssay AID485294 (National Center for Advancing Translational Sciences (NCATS), 2010)
In all, about 370,000 compounds went through this assay and about 150 (0.041%) were called active. Inconclusive results, whose numbers are uncertain, are shown with a selection of clear calls. The call rests on the fitted dose curve; in most records, active means well fitted inhibition curve with a large enough effect; inconclusive means small, poorly fitted or top-dose-only effect; inactive means flat fitted curve, though single readings scatter. Potencies of inconclusive entries are left out as doubtful fits.

biological target: Beta-lactamase (Escherichia coli (strain K12)) (UniProt P00811); assay: qHTS Inhibitors of AmpC Beta-Lactamase (assay with detergent); settings: AmpC hydrolysis of nitrocefin, absorbance 480 nm, 0.01% Triton; activity change, negative = inhibition: at 114 µM (top of the series); further: nearly all actives have a fitted effect of over 25% in size;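 on activity change, negative = inhibition: 0% = no-compound wells and -100% = no-enzyme wells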
UniProt P00811, sequence (P00811 whole entry, looked up): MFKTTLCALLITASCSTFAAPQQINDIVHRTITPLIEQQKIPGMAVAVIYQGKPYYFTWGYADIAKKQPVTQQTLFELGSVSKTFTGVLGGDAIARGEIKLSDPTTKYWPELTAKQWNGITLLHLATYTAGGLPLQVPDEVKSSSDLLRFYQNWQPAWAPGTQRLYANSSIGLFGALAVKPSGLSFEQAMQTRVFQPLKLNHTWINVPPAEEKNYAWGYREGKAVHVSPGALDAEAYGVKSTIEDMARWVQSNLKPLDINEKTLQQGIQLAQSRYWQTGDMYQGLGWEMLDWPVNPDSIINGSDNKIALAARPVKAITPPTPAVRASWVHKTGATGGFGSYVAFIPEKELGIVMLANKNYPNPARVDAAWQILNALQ
Outline: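 20 mM phosphate pH 7.0 + 0.01% (detergent screen) or 0.0001% Triton X-100; 5.3 nM AmpC reagent; cpd preinc 15 min RT; nitrocefin (800 uM stock) to start; A480 q20 s × 4 min; Activity was normalised to no-enzyme and no-compound control wells.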
Potency means the concentration at half of the fitted maximal effect; tags describe the fitted curve by direction and shape.

Compound | Potency | activity change, negative = inhibition
CN(C)C(=O)CSc1nnc(NC(=O)CCc2ccccc2)s1 | inconclusive [inhibitor, full curve, poor fit] | 
COc1ccc(-n2ncc3c(NCc4cccs4)ncnc32)cc1 |  | inactive: 0.932%
Cn1c(=O)oc2cc(S(=O)(=O)N3CCC(N4CCCCC4)CC3)ccc21 |  | inactive: -2.78%
COc1ccc(/C=C2\C(=O)NCC(=O)N2C)cc1 | inconclusive [inhibitor, full curve] | 
Cc1cc(NC(=O)CCC(=O)N(CC(=O)NC2CCCC2)c2ccc3c(c2)OCCO3)no1 | inconclusive [inhibitor, full curve] | 
CCc1ccc(NC(=O)c2cccc(N3CCCS3(=O)=O)c2)cc1 |  | inactive: 1.41%
Cc1ccc(C(=O)N2CCN(Cc3ccc4c(c3)OCO4)CC2)c(Cl)c1 | inconclusive [inhibitor, full curve, poor fit] | 
CCn1c(SCC(=O)O)nnc1-c1ccc(S(=O)(=O)N2CCCC2)cc1 | inconclusive [inhibitor, full curve, poor fit] | 
CCOc1nc(Nc2ccc(OC)c(Cl)c2)nc(OCC)n1 | inconclusive [inhibitor, full curve, poor fit] | 
CC1(C)SC(=Nc2ccccc2)N(S(=O)(=O)c2ccccc2)C1=O |  | inactive: -9.25%
COc1ccc(Nc2nc(-c3sc(NC(C)=O)nc3C)cs2)cc1 | inconclusive [inhibitor, full curve, poor fit] | 
O=C(O)C1=C[C@H](c2csc3ccccc23)C[C@H](OCc2ccc(CO)cc2)O1 |  | inactive: 3.05%
COC1=C/C(=C/c2c(N)n3nc(CC(=O)N4CCCC4)sc3nc2=O)C=CC1=O |  | inactive: -2.46%
COCCN(C(=O)COC(=O)C1CC1)c1c(N)n(Cc2ccccc2)c(=O)[nH]c1=O | inconclusive [inhibitor, full curve, poor fit] | 
Brc1cccc(-c2n[nH]c(-c3ccccc3)n2)c1 |  | inactive: -3.56%
CCOc1cc(S(=O)(=O)NC2CC(C)(C)NC(C)(C)C2)ccc1F | inconclusive [inhibitor, partial curve] | 
Cc1ccc(N(CC(=O)NC(C)C)C(=O)CCC(=O)Nc2nccs2)cc1 | inconclusive [inhibitor, full curve, poor fit] | 
CCCCCCN(C(=O)CCCCCN1C(=O)NC(c2ccc(Cl)cc2)C(C(=O)OCc2ccccc2)=C1C)C(C(=O)NCCCC)c1ccc(OCC(=O)OC)c(C(=O)OC)c1 (configuration not stated) | inconclusive [inhibitor, partial curve, poor fit] | 
CCCCOc1ccc(N2C(=O)CC(N(CCc3ccccc3)C(=O)/C=C/C(=O)O)C2=O)cc1 (configuration not stated) | inconclusive [inhibitor, full curve, poor fit] | 
CCCCN(C(=O)CC1CCCC1)c1c(N)n(CC(C)C)c(=O)[nH]c1=O | inconclusive [inhibitor, full curve, poor fit] | 
O=C(Nc1ccc(F)cc1)c1ccc(CN2CC(=O)N3CCCCC3C2=O)cc1 (configuration not stated) |  | inactive: 21.7%

Compound | Potency | activity change, negative = inhibition
O=C(CSCc1cccc(Br)c1)N1CCOCC1 | inconclusive [inhibitor, full curve] | 
NCCc1c[nH]c2ccc(C(N)=O)cc12 | inconclusive [inhibitor, full curve, poor fit] | 
O=C(CN(CCc1ccccc1)C(=O)CNS(=O)(=O)c1ccc(F)cc1)NCC1CCCO1 (configuration not stated) | inconclusive [inhibitor, full curve, poor fit] | 
COc1ccc(CC(C)N2CCN(c3cccc(C(F)(F)F)c3)CC2)cc1OC (configuration not stated) | inconclusive [inhibitor, full curve, poor fit] | 
Cc1ccc(C)c(N2CCN(C(=O)c3ccc4nsnc4c3)CC2)c1 | inconclusive [inhibitor, full curve] | 
CCCCCN(C(=O)CCC(=O)OCC(=O)c1ccc(F)c(F)c1)c1c(N)n(CCCC)c(=O)[nH]c1=O | inconclusive [inhibitor, full curve] | 
COc1ccc(CCNC(=O)c2nnc(CS(=O)(=O)c3ccccc3)o2)cc1OC | inconclusive [inhibitor, partial curve] | 
O=C(CN1C(=O)NC2(CCCCC2)C1=O)Nc1ccc2c(c1)OCCCO2 |  | inactive: -2.46%
COc1cccc(OC)c1OCCCN1CCC(Cc2ccccc2)CC1 |  | inactive: -4.06%
C=CCN1C(=O)c2ccc(C(=O)N(C)Cc3ccc(C)o3)cc2C1=O |  | inactive: -1.43%
COc1ccc(OCC(=O)N2c3ccccc3CCc3ccccc32)cc1 | inconclusive [inhibitor, single point] | 
CC(=O)NC(Cc1ccccc1F)C(=O)NC1CCN(C(=O)c2cnccn2)CC1 (configuration not stated) | inconclusive [inhibitor, full curve, poor fit] | 
CCCCn1c(SCC(=O)Nc2cccc(OC)c2)nc2ccc(N3CCOCC3)cc2c1=O | inconclusive [inhibitor, partial curve, poor fit] | 
CCOC(=O)C1CCN(C(=O)Cn2nc(C)n3cccc3c2=O)CC1 |  | inactive: 0.531%
O=C(CSc1nc(-c2ccc(F)cc2)cs1)N1CCN(C(=O)c2ccco2)CC1 | inconclusive [inhibitor, partial curve, poor fit] | 
COc1ccc(NC(=O)CSc2nnc(Cc3cccn3C)n2-c2ccc(C)cc2)cc1OC | inconclusive [inhibitor, single point] | 
CCOC(=O)N1CCN(C(=S)NC(=O)C23CC4CC(CC(C4)C2)C3)CC1 | inconclusive [inhibitor, partial curve] | 
Fc1ccc(-n2nnc(-c3cccnc3)n2)cc1 |  | inactive: 5.85%
Cc1cc(C)n(-c2nc3ccccc3c(=O)n2OCc2ccc(Cl)cc2)n1 |  | inactive: -1.41%
CCc1ccc(NC(=S)N(Cc2cccnc2)Cc2ccco2)cc1 | inconclusive [inhibitor, full curve, poor fit] | 
CCP(=O)(c1ccccc1)C(C)(C)O (configuration not stated) | inconclusive [inhibitor, full curve, poor fit] | 
